Data reported in a collection of fitness landscapes (doi:10.1126/science.1257360).
The list shows a part of the results.

B1: PhoQ; a variant is named by its letters at X, in order, P23837 (parent)
chain: MKKLLRLFFPLSLRVRFLLATAAVVLVLSLAYGMVALIGYSVSFDKTTFRLLRGESNLFYTLAKWENNKLHVELPENIDKQSPTMTLIYDENGQLLWAQRDVPWLMKMIQPDWLKSNGFHEIEADVNDTSLLLSGDHSIQQQLQEVREDDDDAEMTHSVAVNVYPATSRMPKLTIVVVDTIPVELKSSYMVWSWFIYVLSANLLLVIPLLWVAAWWSLRPIEALAKEVRELEEHNRELLNPATTRELTSLVRNLNRLLKSERERYDKYRTTLTDLTHSLKTPLXXLQXXLRSLRSEKMSVSDAEPVMLEQISRISQQIGYYLHRASMRGGTLLSRELHPVAPLLDNLTSALNKVYQRKGVNISLDISPEISFVGEQNDFVEVMGNVLDNACKYCLEFVEISARQTDEHLYIVVEDDGPGIPLSKREVIFDRGQRVDTLRPGQGVGLAVAREITEQYEGKIVAGESMLGGARMEVIFGRQHSAPKDE

Variants of: B1
Assay: enrichment ratio after two sorts for PhoP signalling (ratio (wild type AVST 3.29)); higher = more functional
Conditions: with PhoP (E. coli)

Variant	enrichment ratio
ADGR	≤ 0.25
MTWI	10.2
PGMQ	≤ 0.25
QALC	10.7
YVRY	≤ 0.25
SCMC	12.6
SYAR	≤ 0.25
ALIG	≤ 0.25
DLMH	≤ 0.25
LDIW	≤ 0.25
PIIK	≤ 0.25
GVSD	≤ 0.25
REPT	≤ 0.25
VQMV	≤ 0.25
DHEG	≤ 0.25
YEPK	≤ 0.25
TAMD	6.3
FLAL	≤ 0.25
VSMS	0.859
ITEI	≤ 0.25
TEAM	16.4
IWPY	≤ 0.25
VFAF	≤ 0.25
ANEF	≤ 0.25
LMPF	≤ 0.25
DNNE	≤ 0.25

Variant	enrichment ratio
PMTH	≤ 0.25
YHFR	≤ 0.25
YFEM	≤ 0.25
KRIR	≤ 0.25
VVKR	≤ 0.25
TYPQ	≤ 0.25
SLQM	7.14
TICW	≤ 0.25
EAPA	≤ 0.25
EDVF	≤ 0.25
HPNG	≤ 0.25
AMTR	2.89
MGEP	≤ 0.25
QSYW	≤ 0.25
PESR	≤ 0.25
QKNW	≤ 0.25
PHAA	≤ 0.25
FWTV	≤ 0.25
QKRR	≤ 0.25
KQIM	≤ 0.25
VCVY	≤ 0.25
IHTC	≤ 0.25
YLST	≤ 0.25
GLFH	≤ 0.25
FKQA	≤ 0.25
RVYA	≤ 0.25

Variant	enrichment ratio
NMWN	≤ 0.25
WSCD	≤ 0.25
SVIT	≤ 0.25
RLIM	≤ 0.25
TWQA	≤ 0.25
PQTQ	≤ 0.25
QWSF	≤ 0.25
HDRQ	≤ 0.25
HLVF	1.11
NTDG	≤ 0.25
FHHP	≤ 0.25
HRYV	≤ 0.25
MIRW	≤ 0.25
YEYA	≤ 0.25
SWNA	≤ 0.25
AHHS	≤ 0.25
EAYE	≤ 0.25
PIEM	≤ 0.25
INNA	≤ 0.25
GPDR	≤ 0.25
PSLH	≤ 0.25
IAHD	≤ 0.25
QQAN	≤ 0.25
FVTQ	≤ 0.25
AYNH	≤ 0.25
MSYL	11

Variant	enrichment ratio
MGEV	≤ 0.25
QNIW	≤ 0.25
AKWL	≤ 0.25
YNWT	≤ 0.25
MPGM	≤ 0.25
LFYS	≤ 0.25
QSPH	≤ 0.25
DYMD	≤ 0.25
KQDL	≤ 0.25
TQND	≤ 0.25
HNMI	≤ 0.25
NFFK	2.51
TDCW	≤ 0.25
HEYS	≤ 0.25
TPFH	≤ 0.25
SYVT	≤ 0.25
GIWD	≤ 0.25
HNLA	≤ 0.25
RCFP	≤ 0.25
DGIY	≤ 0.25
DFTN	≤ 0.25
DSVW	≤ 0.25
LELK	≤ 0.25
KDNN	≤ 0.25
PRWM	≤ 0.25
DKNH	≤ 0.25

Variant	enrichment ratio
DQVM	≤ 0.25
GHHM	≤ 0.25
RMWR	≤ 0.25
MNSY	≤ 0.25
GHTL	≤ 0.25
DDQL	≤ 0.25
RGMN	≤ 0.25
GHES	≤ 0.25
GAIN	5.96
YNGL	≤ 0.25
PVYS	≤ 0.25
LHSE	≤ 0.25
IQPN	≤ 0.25
DKSH	≤ 0.25
GVSS	0.963
SSKT	≤ 0.25
NHHV	≤ 0.25
YHNK	≤ 0.25
VWCQ	≤ 0.25
QSQC	≤ 0.25
LQVC	≤ 0.25
WVMP	≤ 0.25
WNGW	8.14
FYKH	≤ 0.25
TWFC	≤ 0.25
DYEA	≤ 0.25

Variant	enrichment ratio
FWCK	≤ 0.25
RSNS	≤ 0.25
TYWS	≤ 0.25
PRYS	≤ 0.25
TIQC	0.791
NQKE	≤ 0.25
LRGG	≤ 0.25
LVTR	≤ 0.25
NCMI	≤ 0.25
YRYV	≤ 0.25
PDHC	≤ 0.25
IVWE	≤ 0.25
TLQA	≤ 0.25
WGVC	≤ 0.25
GSLH	6.16
VHME	≤ 0.25
YWFA	≤ 0.25
DDHL	≤ 0.25
ESTG	≤ 0.25
VLEC	≤ 0.25
YYWN	≤ 0.25
TERR	≤ 0.25
FQMC	≤ 0.25
